Measured values as given in the supplement of paper PMC10126150.
Sequences with one replicate were seen in a single cluster, so their values are uncertain.

System: ATP
Assay: switch fluorescence ratio, 500 uM ATP over buffer (Cy3 cluster intensity, sum of 5 cycles each) (fold (ratio)); higher = stronger signal-on switching upon ATP binding; sequences stand for … in TCGTCGGCAGCGTCAGATGTGTATAAGAGACAGTTTTTTTTTTTTTTTTTTTTTTTTT…TC
Conditions: aptamer strand: ATP DNA aptamer (quencher-CACCTGGGGGAGTATTGCGGAGGAAGG + anchor), 100 nM annealed; ATP concentration: 500 uM; one replicate
Procedure, shortened: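 The fluorescence ratio divides summed target-cycle Cy3 intensity by summed buffer-cycle Cy3 intensity for each cluster and is averaged per switch-domain sequence. Cy3-labelled switching-strand clusters on a modified Illumina MiSeq flow-cell were annealed to 100 nM quencher-labelled ATP aptamer, then imaged in selection buffer and again after 15 min with 500 uM ATP at 22 °C. Five such cycles were run, with NaOH stripping and re-annealing between them, and clusters outside 100-1000 RFU were excluded.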
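Note: ATP exposure 15 min at 22 °C before imaging.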

Sequence | switch fluorescence ratio
TGTAGGCACA | 1.02
AGGGAGCTAA | 1.03
CCGTCGCTAA | 5.03
GAACACGGTT | 1.03
AACTATTACA | 1.09
GATTGCTTGG | 1
CGACCGTGTT | 0.977
ATCGGAAGTG | 0.949
AGACGTCCCC | 1.07
TATACGGTGT | 0.972
CATTGCTAGA | 0.957
GGAAGCTAGA | 0.982
AGTCTTAGT | 1
GAGTACAGC | 1.05
GTTTGAATCG | 0.984
ATTTACACGT | 1.03
TTAGGTGTA | 0.972
GTGTTAGTTC | 0.99
CAGTACTGA | 0.991
CTATGGTTAT | 0.989
AATATGGCAT | 0.996
TAAAGAGGAA | 0.998
GGGGTACATT | 1.38

Sequence | switch fluorescence ratio
TGGTGAGGTC | 0.994
TACACTGCCA | 1.16
TACGCAGATC | 1.18
TTGCTTTGCC | 1.1
TGCCGAATGG | 1
TATCGGTTC | 0.934
GGAATTCAAT | 1.02
CTCAATGTGA | 1.02
AAGAATTCTT | 0.965
CGTGTAAATG | 1.05
AACATATT | 1.04
GCCCCGGAAG | 1.14
GACAAATGGA | 1.03
AGGTTACTA | 1.01
TACATTACTA | 1.28
TTCGGGAAGT | 1.01
ATTCGGGCCT | 0.966
ATGTCATGTT | 0.937
TATAGCGCGA | 1.01
GTTTTACGGC | 0.994
GGCTTCTGTT | 1.07
TACTATTGAC | 1.03
TTACGTCAAC | 1.31

Sequence | switch fluorescence ratio
CGCAAATGCC | 1.71
GACGGACAGC | 1.35
AATGCACTTA | 1.08
AAACTTGGTT | 1.01
ATAAAGACGC | 1.06
GGAACTTGGA | 0.982
GTGGTGATCT | 1.01
TCATTTCCCC | 1
GGCGTCTACG | 1.04
TATTCACGAT | 1.04
CAGTATCTAA | 1
CGAGATCGGT | 1.03
TTCCCCGACT | 1.06
ATTGCCGGAT | 1.05
AAGGCATCTC | 1.01
AAGGATTCCG | 0.912
AGCCCGGTAT | 1.25
CTGGTACCCG | 1.01
ATGAAGGGCA | 0.991
TGGACAGGCC | 1.06
TTAGTTGCCC | 0.944
AGTTTCAAGC | 1.14
AAAAGGGCAA | 1.21

Sequence | switch fluorescence ratio
ATAGAATCGG | 0.971
CTTTTACTTT | 0.995
CAGTCTGCC | 1.01
ACGCCCTATT | 1.09
TGCTCCCCCG | 3.71
TTACGTAACG | 1.1
TCCGGCGTGG | 1.03
GCCAGTGGAC | 1.02
GTAGTAACGG | 1.03
ATCATGTAAA | 0.964
AAATAAAAGT | 0.975
CTCGGTGCAC | 1.05
CTTATAATTC | 1.02
CCCAGGAGGG | 1.02
CTCGTCCGGA | 1.21
TTCTTCAATA | 1.02
TGAATACCAG | 1.03
TCCATGGTGG | 1.03
CTGCTACCGT | 1.05
AGTTACAGAC | 1.04
CAAAATTTTT | 0.972
TACGAGCGGG | 1.02
CAGCATCGTA | 0.979

Sequence | switch fluorescence ratio
GGAGGCCTAT | 1.02
CGCCGATGG | 1.01
ATATTTAGTC | 1.01
GAAAATGATA | 1.01
ATGACTGAAG | 0.962
ACCTGGCTGT | 1.05
GGTCTTTCAC | 1.03
GATCATTTG | 1.03
GGAGTAGAAC | 1.04
ACCCTCTTAG | 1.13
AGATGAAAGT | 0.977
ATCCATGGTC | 1.03
CCAAACCTG | 1.07
CGCATATCAG | 1.11
TACCAGCTGG | 1.06
CTCGGCTTTG | 0.991
TTGCTGCCCG | 0.952
AGGTGGCGCG | 0.976
TCGAGACATT | 0.956
CGGAGTAGAC | 3.91
ATTTTCTTAC | 1.09
GGGGTTATG | 0.951
GGTAGCCAGC | 1.03

Sequence | switch fluorescence ratio
TGTCCGGGCA | 0.957
TGTGTCTTGC | 0.964
GCCTGAGTCG | 1.12
TTGTGAAGAC | 0.987
CTTGATCTCA | 0.963
TGGCGTTGTA | 1.01
GGATTTAGTC | 0.963
ATCCTTGCGT | 1.04
GACTCTAAAG | 0.987
TAGTCTGAAT | 1.01
CCATCCTCAG | 1.54
TTTACGACCA | 1.19
CACGTACCGC | 1.51
CGAACTGGGA | 0.977
CCAAGCCTAG | 1.07
GCGCCCCATT | 1.06
TAACGCGAAT | 1.18
CGCTTCATGG | 0.98
CCAAGTTTTA | 1.03
AGATGTCCCC | 1.09
AGGAACGGGC | 1.08
TTTTCTGGGT | 0.991
CGAACTAGTG | 1.01

Sequence | switch fluorescence ratio
AACCGTAATC | 2.78
TTACGAGTCA | 1.04
TAGTGTTGT | 1.02
TGCGAACGAT | 1.05
TTGTAGTGTG | 0.973
GAACGCGAGC | 2.34
CGAGGTCAGC | 1
AAAGTATCTA | 0.98
CGCGCGGGCC | 0.978
CTAACAGCAA | 4.55
TAGAGGGTGG | 0.972
ATGAACCTCG | 1.08
GCGATCATGC | 1.02
GCGTGATCTG | 0.997
TAACCATGCA | 1.02
ATCGCTACGT | 1.06
GTACGTATTC | 1.09
TCTAACTTGC | 1.1
TCGACTCTTG | 0.947
